Measured values from publication PMC11992160.
These are yes or no findings as the source states them, for the method shown. Binding seen in cells or lysates may run through a third protein. Where a sequence is shown, tags or fusion partners need not be part of it.

Amino acid sequences for entries named in this document (tags omitted).
UniProt O94901: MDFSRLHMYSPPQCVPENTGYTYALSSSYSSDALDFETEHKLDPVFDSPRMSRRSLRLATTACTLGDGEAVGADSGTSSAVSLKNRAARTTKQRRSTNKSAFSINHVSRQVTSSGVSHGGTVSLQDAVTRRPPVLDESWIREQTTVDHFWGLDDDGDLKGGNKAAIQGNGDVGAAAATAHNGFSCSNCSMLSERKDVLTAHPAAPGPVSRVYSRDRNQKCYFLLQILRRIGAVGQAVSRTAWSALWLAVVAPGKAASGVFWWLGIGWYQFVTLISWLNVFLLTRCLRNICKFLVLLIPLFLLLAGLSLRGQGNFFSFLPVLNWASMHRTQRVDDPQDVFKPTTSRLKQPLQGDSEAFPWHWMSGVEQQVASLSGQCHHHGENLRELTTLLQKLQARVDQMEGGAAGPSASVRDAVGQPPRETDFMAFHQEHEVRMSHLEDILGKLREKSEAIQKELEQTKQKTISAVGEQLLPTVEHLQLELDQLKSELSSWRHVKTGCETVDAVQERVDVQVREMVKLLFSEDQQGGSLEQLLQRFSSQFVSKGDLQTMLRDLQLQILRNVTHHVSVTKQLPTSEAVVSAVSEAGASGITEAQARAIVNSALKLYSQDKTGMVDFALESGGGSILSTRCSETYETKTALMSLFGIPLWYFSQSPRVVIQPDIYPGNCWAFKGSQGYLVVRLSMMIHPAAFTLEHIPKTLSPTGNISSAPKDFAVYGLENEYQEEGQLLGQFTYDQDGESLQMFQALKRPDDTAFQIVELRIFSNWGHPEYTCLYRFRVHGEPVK

Assays:
Experiment in all cases: co-IP; HeLa lysates in 1% DMNG, 50 mM Tris-HCl pH 7.5, 150 mM NaCl, 4 °C; anti-HA, anti-FLAG or anti-V5 magnetic beads 2 h; washes in 0.1% DMNG; immunoblot; parental cells, CTDNEP1 KO cells, or MAN1 KO cells expressing V5-MAN1 derivatives; without or with 1 h TGF-β3 (20 ng/ml) or BMP
[1] = molecular target: T1, CTDNEP1-FLAG (CTDNEP1 fused to a triple FLAG epitope tag) (UniProt O95476)
T1 sequence: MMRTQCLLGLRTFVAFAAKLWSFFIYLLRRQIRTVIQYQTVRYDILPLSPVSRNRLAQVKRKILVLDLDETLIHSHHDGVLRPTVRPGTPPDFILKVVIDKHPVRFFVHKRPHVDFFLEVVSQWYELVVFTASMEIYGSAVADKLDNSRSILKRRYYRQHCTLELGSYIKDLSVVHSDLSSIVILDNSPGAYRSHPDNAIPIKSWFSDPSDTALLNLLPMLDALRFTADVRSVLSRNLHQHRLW

[2] = molecular target: T2, NEP1R1-HA (NEP1R1 fused to an HA epitope tag) (UniProt Q8N9A8)
T2 sequence: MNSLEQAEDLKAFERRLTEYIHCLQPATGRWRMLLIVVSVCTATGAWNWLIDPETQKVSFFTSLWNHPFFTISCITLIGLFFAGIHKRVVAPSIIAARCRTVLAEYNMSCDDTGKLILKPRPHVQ

[3] = molecular target: T3, V5-MAN1 (V5-tagged MAN1) (UniProt Q9Y2U8)
T3 sequence: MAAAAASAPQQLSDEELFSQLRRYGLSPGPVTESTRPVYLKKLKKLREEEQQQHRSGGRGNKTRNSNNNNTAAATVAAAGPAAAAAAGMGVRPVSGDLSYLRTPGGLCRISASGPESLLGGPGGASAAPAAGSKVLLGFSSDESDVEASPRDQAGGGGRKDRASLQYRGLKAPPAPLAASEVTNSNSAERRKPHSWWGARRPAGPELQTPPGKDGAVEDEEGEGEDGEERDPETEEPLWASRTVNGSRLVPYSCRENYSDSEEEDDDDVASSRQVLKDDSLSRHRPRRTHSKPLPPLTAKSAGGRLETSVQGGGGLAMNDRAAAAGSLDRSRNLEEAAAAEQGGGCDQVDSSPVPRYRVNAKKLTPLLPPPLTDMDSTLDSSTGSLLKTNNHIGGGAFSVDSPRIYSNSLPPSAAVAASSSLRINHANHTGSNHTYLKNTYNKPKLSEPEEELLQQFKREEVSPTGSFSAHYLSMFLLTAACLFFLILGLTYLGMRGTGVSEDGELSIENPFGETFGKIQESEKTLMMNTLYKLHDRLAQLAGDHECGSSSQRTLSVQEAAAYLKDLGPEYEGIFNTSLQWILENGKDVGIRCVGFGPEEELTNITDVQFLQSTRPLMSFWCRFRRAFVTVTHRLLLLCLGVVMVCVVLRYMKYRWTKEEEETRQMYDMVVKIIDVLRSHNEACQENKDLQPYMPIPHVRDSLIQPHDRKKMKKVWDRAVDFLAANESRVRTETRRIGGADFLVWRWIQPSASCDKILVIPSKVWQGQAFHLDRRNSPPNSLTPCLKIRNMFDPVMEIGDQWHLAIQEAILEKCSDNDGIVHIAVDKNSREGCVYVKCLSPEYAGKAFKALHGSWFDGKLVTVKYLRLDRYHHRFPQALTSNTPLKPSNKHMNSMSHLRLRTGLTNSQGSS

binding [1]: no binding
binding [2]: no binding
binding [3]: no binding
Substance: SUN1 (from UniProt O94901 1-785)
